# PubChem BioAssay AID662 (National Center for Advancing Translational Sciences (NCATS), 2007)
# The campaign covered roughly 71,000 compounds. About 1,800 (2.5%) were called active. The inconclusive results got no clear call from the source; some entries with a clear call stand among them for comparison. Calls follow the shape of the dose curve; as a rule, active = well fitted activation curve with a large enough effect in the signal ratio, with a control signal flat (not every such curve was filed as active); inconclusive = small, poorly fitted or top-dose-only effect, or effect the other way, or a change in a side signal; inactive = flat fitted curve, though single readings scatter; the % refers to the signal ratio. Potencies of inconclusive entries are doubtful fits and often do not repeat.
# Assay: Cell signaling CRE-BLA (Fsk stim); as to activity change, negative = inhibition: % of control where 0% means no effect
# Details: CHO CRE-bla reporter (cAMP response element driving beta-lactamase), forskolin EC10, beta-lactamase ratio
# How it was run: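 qHTS titration format; CRE-bla CHO reporter; stimulus EC10 NKH 477, a water-soluble forskolin. Read: CCF4 460/530 nm ratio. Potency expressed as AC50 for activators or inhibitors.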
# [1] = activity change, negative = inhibition: at 38.2 µM (top of the series) unless noted
# Potency is read from the fitted curve at half-maximal effect; tags tell the direction and shape of the fitted curve.
structure (smiles),measurement,setting,value
COC(=O)/C=c1/sc2n(c1=O)CCN=2,Potency,[1],inactive
CCCC1(C(=O)OC)NC(c2ccco2)C2C(=O)N(c3ccc(C)cc3)C(=O)C21 (centres undefined),Potency,[1],inactive
Clc1ccccc1CN1CCc2sccc2C1,Potency,[1],inactive
Cc1ccc2c(c1)-c1c(cnn1CC(=O)NC(C)CCc1ccco1)CO2 (centres undefined),Potency,[1],inactive
O=S(=O)(c1cccs1)N1CCN(c2ncccn2)CC1,"activity change, negative = inhibition",[1],inconclusive: 18.6%
COc1ccc(-c2nn(C)c(=O)c3ccccc23)cc1CNS(C)(=O)=O,Potency,[1],"inconclusive: 10 µM [rising, partial curve]"
CCCOC(=O)c1ccc(Oc2cn[nH]c2-c2ccc(OCC)cc2O)cc1,"activity change, negative = inhibition",[1],inconclusive: 21.9%
CCN(CC)c1ccc2cc(C(=O)Nc3ccc(-n4cnnn4)c(OC)c3)c(=O)oc2c1,Potency,[1],"inconclusive: 12.6 µM [rising, single point]"
COc1ccc(NC(=O)C2=C(C)Nc3ncnn3C2c2ccccc2C(F)(F)F)c(OC)c1 (centres undefined),Potency,[1],inactive
O=C(CCC(=O)OCC(F)(F)C(F)F)NCc1ccccc1,Potency,[1],inactive
COc1ccc(N2CCN(CCCNC(=O)CC3Oc4ccc(C)cc4NC3=O)CC2)cc1 (centres undefined),Potency,[1],inactive
Cc1nc(NC2CCCCC2)c2nc(-c3ccccc3)n(CCCN(C)C)c2n1,Potency,[1],inactive
CN1C(=O)C(O)(CC(=O)c2ccc3c(c2)OCO3)c2ccccc21 (centres undefined),"activity change, negative = inhibition",[1],inconclusive: -7.22% [at 7.6 µM]
c1cc(-c2sc(-c3ccncc3)c(-c3ccncc3)c2-c2ccncc2)ccn1,"activity change, negative = inhibition",[1],inactive: 0.212% [at 7.6 µM]
O=C(CN1CCN(c2ccccc2)CC1)N1CCN(c2ccccc2)CC1,"activity change, negative = inhibition",[1],inconclusive: 5.05%
Cc1cccc(N2CCN(c3cccc(C)c3)C2c2cccnc2)c1,"activity change, negative = inhibition",[1],inconclusive: -12%
COc1cc(-c2noc(-c3ccco3)n2)cc(OC)c1OC,Potency,[1],active: 15.8 µM
Cc1cccc(N(C)S(=O)(=O)c2ccc3[nH]c(=O)c(=O)[nH]c3c2)c1,Potency,[1],"inconclusive: 10 µM [falling, single point]"
O=C1CCCN1CC(CN1CCOCC1)Sc1nc2ccccc2c(=O)n1-c1ccccc1 (centres undefined),Potency,[1],"inconclusive: 12.6 µM [rising, partial curve]"
COCCn1c(=O)c(-c2cc(F)cc(F)c2)nc2cnc(Nc3cccc(OC)c3)nc21,"activity change, negative = inhibition",[1],inconclusive: -25.7% [fluorescent]
CCN(CC)c1ccc(NC(=O)c2ccc(Br)o2)c(C)c1,Potency,[1],inactive
Cc1ccc(C(N)=Nc2ccccc2)cc1,"activity change, negative = inhibition",[1],inactive: -11.4% [at 7.6 µM]
Cc1cccc(CNc2ncnc3[nH]ncc23)c1,"activity change, negative = inhibition",[1],inactive: -4.01% [at 7.6 µM]
Cc1ccccc1CN1C(=O)C(O)(CC(=O)c2ccncc2)c2ccccc21 (centres undefined),Potency,[1],"inconclusive: 25.1 µM [rising, single point]"
Cc1ccc(C)c2nc(N3CCCC3)c(C#N)cc12,Potency,[1],active: 10 µM
Cc1cc(NC(=O)c2c(F)c(F)c(F)c(F)c2F)no1,"activity change, negative = inhibition",[1],inconclusive: -21.4%
COc1ccc(-c2nnc(SC(C)C(=O)Nc3nccs3)n2-c2ccccc2)cc1OC (centres undefined),Potency,[1],"inconclusive: 12.6 µM [rising, partial curve]"
CO[C@]1(C2=NCCN2)COc2ccccc2O1,Potency,[1],inactive
CC(=O)N[C@@H](CC(=O)O)C(=O)N[C@@H](CCC(=O)O)C(=O)O,Potency,[1],inactive
Cc1cc(C(C)(C)CC(C)(C)C)ccc1OCCOCC[N+](C)(C)Cc1ccccc1,Potency,[1],inactive
Cc1nc(NCCN2CCOCC2)c2oc3ccccc3c2n1,"activity change, negative = inhibition",[1],inconclusive: 11%
Cc1nnsc1-c1nc2ccccc2[nH]1,"activity change, negative = inhibition",[1],inconclusive: 9.38%
O=C(O)CCc1ccc(-c2ccccc2)n1NC(=O)c1ccco1,Potency,[1],inactive
CCOC(=O)c1cnc(-n2nc(C)cc2C)nc1N1CCOCC1,Potency,[1],"inconclusive: 10 µM [rising, partial curve]"
CN1C(=O)c2ccc(N3CCCC3)cc2C1=O,Potency,[1],"inconclusive: 10 µM [rising, single point]"
CCOC(=O)c1c(C)[nH]c(C(=O)CN2CCOCC2)c1C,"activity change, negative = inhibition",[1],inconclusive: 24.3%
CCn1c(SCC(=O)Nc2oc(-c3ccccc3)c(-c3ccccc3)c2C#N)nnc1-c1ccco1,Potency,[1],"inconclusive: 5.01 µM [rising, full curve, poor fit]"
CCCc1nc2n[nH]c(N)c2c2c1CCC2,"activity change, negative = inhibition",[1],inconclusive: 29%
Cc1cc(Cc2cc(Cc3cc(C)cc(C(C)(C)C)c3O)c(C)cc2C)c(O)c(C(C)(C)C)c1,"activity change, negative = inhibition",[1],inactive: -3.73% [at 7.6 µM]
CN(C)CCCN1c2ccccc2CCc2ccc(Cl)cc21,"activity change, negative = inhibition",[1],inconclusive: -29.5%
same,"activity change, negative = inhibition",at 17.1 µM (top of the series),inactive: -10.6%
same,"activity change, negative = inhibition",at 38.2 µM (top of the series),inactive: -4.89%
CC(=O)N1CCN(C(C)=O)C1c1ccccc1,"activity change, negative = inhibition",[1],inconclusive: 18.7% [at 7.6 µM]
CN(C)c1ncc2nc(-c3cc(F)cc(F)c3)c(=O)n(Cc3ccc(F)cc3)c2n1,Potency,[1],"inconclusive: 3.16 µM [rising, partial curve]"
O=c1c2[nH]c3ccc(Cl)cc3c2ncn1Cc1ccccn1,Potency,[1],active: 3.98 µM
Cc1csc(NC(=O)CSc2nc(C(C)C)nc3c2c(=O)n(C)c(=O)n3C)n1,Potency,[1],active: 2.51 µM
COc1cccc(NC(=O)Cc2ccccc2)c1,"activity change, negative = inhibition",[1],inconclusive: 29% [at 7.6 µM]
Cc1c(C(=O)NCCCN2CCOCC2)sc2nc(-c3ccccc3)cn12,Potency,[1],"inconclusive: 12.6 µM [rising, partial curve]"
O=c1cc(N2CCN(Cc3ccccc3)CC2)[nH]c(=O)n1-c1cccc(C(F)(F)F)c1,"activity change, negative = inhibition",[1],inconclusive: -10.4%
CC(=O)O[C@H]1CC[C@@]2(C)C(=CC[C@@H]3[C@H]4CC[C@@H]([C@H](C)C(=O)O)[C@]4(C)CC[C@H]32)C1,Potency,[1],"inconclusive: 3.98 µM [rising, single point]"
Cn1c(C(=O)Nc2ccc3c(c2)OCO3)cc2c(=O)n(C)c3ccccc3c21,Potency,[1],active: 1.58 µM
C=CCn1c(SCc2cc(=O)n3ccsc3n2)nc2scc(C3CC3)c2c1=O,Potency,[1],active: 1.58 µM
Cc1cc(NC(=O)c2ccc(S(=O)(=O)N3CCCC3)cc2)nc2c1c(=O)oc1ccccc12,Potency,[1],"inconclusive: 1.58 µM [rising, partial curve]"
CC1(C)Cc2c(sc3c2c(=N)n(Cc2ccco2)c(=O)n3Cc2ccc(Cl)cc2)CO1,Potency,[1],active: 0.2 µM
